49 compounds from PubChem BioAssay AID1508623 (National Center for Advancing Translational Sciences (NCATS), 2021) can be followed below.

Each structure is given as a SMILES string. The whole screen tested about 48,000 compounds, of which about 450 (0.94%) were called active. Not shown: some 19% with an inconclusive outcome. Calls come from the whole dose curve; as a rule, active = well fitted inhibition curve with a large enough effect; inconclusive = small, poorly fitted or top-dose-only effect; inactive = no such curve, though single readings can be large or run the other way. The list shows a part of the results.

A short description of this experiment: Primary qHTS for Identification of Small Molecule Inhibitors of Huntingtin Promoter Activity. Note: nearly all actives have a fitted effect of over 50% in size. The following applies: HEK293 HTT promoter firefly luciferase reporter (activity 0% = vehicle and -100% = no light), 24 h; series mostly up to 57.5 µM; activity change, negative = inhibition: at the top concentration. An outline of the steps: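 Luminescence was read after Dual-Glo reagent and a 10 min room-temperature incubation. Values were normalized to vehicle (0% activity) and zero RLU (-100% activity). Reporter HEK293 cells had been exposed to compounds (up to 57.5 uM final) for 24 h.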
`COc1ccc(-n2nnc(C(=O)Nc3ccccc3F)c2N)cc1`: the “activity change, negative = inhibition” value was inactive: 31.4%. The result for `CCc1ccccc1N(c1nc(-c2ccc(OC)c(OC)c2)no1)c1nc(-c2ccc(OC)c(OC)c2)no1` reads inactive: -25.2%; that for `COc1cccc(NC(=O)C(=O)NCCc2csc3nc(-c4ccccc4C)nn23)c1`, inactive: -6.53%. For `COC(=O)c1c(NC(=O)c2nc(SC)ncc2Cl)sc2c1CCCC2`, the “activity change, negative = inhibition” value was inactive: -18.1%. Turning to `CC(=O)NCc1nc2cccnc2n1Cc1ccccc1`, the “activity change, negative = inhibition” value was inactive: -5.21%. The result for `CC(=O)c1cc(-c2ccccc2)n(CCC(=O)NCCc2ccccc2)c1C` reads inactive: -23.8%; that for `Cc1cccc(CCNC(=O)c2ccc3c(c2)nc2n3CCCCC2)c1`, inactive: 12%; that for `Cc1nc2c(-c3ccc(F)cc3)c(C)nn2c(C)c1CCC(=O)N1CCN(c2ccc(F)cc2)CC1`, inactive: -13.5%. Under `Cc1oc(-c2cccc(Cl)c2)nc1CSc1nnc(C)n2c1cc1occc12` stands inactive: -0.294%; under `COc1ccccc1N1CCN(C(=O)Cn2cnc3sc(C)c(S(=O)(=O)N4CCC(C)CC4)c3c2=O)CC1`, inactive: -5.52%; under `CCc1cccc(C)c1NC(=O)Cn1c(=O)n(-c2cccc(C)c2)c(=O)c2c1c1cc(C)ccc1n2C`, inactive: 9.99%. Under `COc1ccc(Cl)cc1N(C)C(=O)Cc1noc2ccc(C)cc12` stands inactive: -26.1%; under `C/C(=C1\CCOC(=O)S1)N(C=O)Cc1cnc(C)nc1N`, inactive: -0.942%; under `CCOC(=O)c1cc(NC(=O)c2ccc(OC)cc2)c(=O)n2c1oc1ccc(Cl)cc12`, inactive: -2.38%. Regarding `CCn1c(CNC(=O)C23CC4CC(CC(C4)C2)C3)nnc1SCC(=O)Nc1ccc(F)cc1`, the “activity change, negative = inhibition” value was inactive: -27.8%.

Take `CC1Cc2ccccc2N1C(=O)CSc1nnc(-c2cccc(Cl)c2)o1` (centres undefined): the “activity change, negative = inhibition” value was inactive: 12.9%. As for `O=c1[nH]c2ccc(NCc3ccccc3F)cc2[nH]1`, the “activity change, negative = inhibition” value is inactive: -1.38%.

In the case of `O=C(CCc1ccccc1)NCc1ccc2c(c1)CCN2C(=O)c1ccc(Cl)cc1`, the “activity change, negative = inhibition” value was inactive: -5.91%. As for `CCOc1ccc(CCNC(=O)c2cc3c(=O)n(C)c4ccccc4c3n2C)cc1`, the “activity change, negative = inhibition” value was inactive: -5.77%. Under `CCc1cccc(NC(=O)CC2Oc3ccc(C)cc3NC2=O)c1` (centres undefined) stands inactive: -8.91%. As to `O=C(NCCC1=CCCCC1)c1ccc2c(c1)N(Cc1ccc(Cl)cc1)C(=O)c1ccccc1S2=O` (centres undefined), the “activity change, negative = inhibition” value is inactive: -18.3%. Under `N#Cc1c(N(CC(=O)O)CC(=O)O)sc(C(=O)O)c1CC(=O)O` stands inactive: -11.2%. The result for `COc1ccc(-n2c(=O)c3c(c4cc(OC)ccc4n3C)n(C)c2=O)cc1` reads inactive: -11.2%. For the compound `CCOc1ccc(NC(=O)Cn2cc(C(=O)c3ccc(CC)cc3)c(=O)c3ccc(C)nc32)cc1`, the “activity change, negative = inhibition” value was inactive: 3.11%. For the compound `Cc1ccc(-n2c(=O)c3cccnc3n2CC(=O)NCc2ccc(F)cc2)cc1C`, the “activity change, negative = inhibition” value was inactive: -22.2%. On to `Cc1ccc(CNC(=O)CN2CCCN(Cc3ccc(F)cc3)S2(=O)=O)cc1`, for which the “activity change, negative = inhibition” value is inactive: -20%.

As for `CCOC(=O)C1=C(C)NC(=S)NC1c1cccc(O)c1` (centres undefined), the “activity change, negative = inhibition” value was inactive: -8.71%.

Consider `CCN(CC)S(=O)(=O)c1ccc2c(c1)N(CC(=O)Nc1c(C)cc(C)cc1C)C(=O)C1CCCN21` (centres undefined), for which the “activity change, negative = inhibition” value is inactive: -7.55%. The result for `O=C(COc1ccccc1F)Nc1ccc(Cl)c(-c2nc3ccccc3[nH]2)c1` reads inactive: 18.9%. Under `COc1ccc(NC(=O)CSc2nccn2Cc2ccco2)cc1OC` stands inactive: -10.5%. Under `Cc1cc(C)c(/C=C/c2onc(C)c2S(=O)(=O)N2CCC(C(=O)Nc3ccc(Cl)c(C(F)(F)F)c3)CC2)c(C)c1` stands inactive: -22.1%.

For the compound `COc1ccccc1NC(=O)c1nc(SCc2ccc(F)cc2)ncc1Cl`, the “activity change, negative = inhibition” value is inactive: -6.61%. Under `CCOC(=O)c1cnc2ccccc2c1Nc1ccc(N2CCOCC2)cc1` stands inactive: -12.8%; under `CCc1ccc(N2CCn3c2nc2c3c(=O)n(CCc3ccccc3)c(=O)n2C)cc1`, inactive: -14.5%. Under `Cc1cccc(Cn2c(=O)n(-c3ccc(Cl)c(Cl)c3)c(=O)c3c(C)c(C)sc32)c1` stands inactive: -6.38%; under `CCOCCc1nnc(NC(=O)C(=O)c2cc(C)n(-c3cccc(Cl)c3)c2C)s1`, inactive: -14.3%; under `Clc1ccc(-c2nc3ccccn3c2Nc2ccc3c(c2)OCCO3)s1`, inactive: 13.8%. In the case of `COc1ccc(NC(=O)c2sc3nc(C)c(C(=O)Nc4ccc(C)cc4C)c(-c4cccs4)c3c2N)cc1`, the “activity change, negative = inhibition” value was inactive: -25.4%. Under `CCOc1ccc(NC(=O)C(=O)NCCc2csc(-c3ccc(C)cc3)n2)cc1` stands inactive: 7%; under `CCN(Cc1ccccc1)C(=O)Cn1c(=O)oc2cc(S(=O)(=O)N3CCCCCC3)ccc21`, inactive: -26.7%.

With `Cc1ccccc1CSc1cn(CC(=O)N2CCCC2)c2ccccc12`, the “activity change, negative = inhibition” value is inactive: 18.9%. As to `CCC(=O)N1CCc2cc(S(=O)(=O)NCCC(=O)Nc3ccc(OC)c(OC)c3)ccc21`, the “activity change, negative = inhibition” value was inactive: -9.41%.

Turning to `COc1cc(-c2nnn(CC(=O)NCc3ccccc3)n2)cc(OC)c1OC`, the “activity change, negative = inhibition” value is inactive: -4.72%. Under `COc1ccc(NC(=O)CSc2nnc3c(C)cc4ccccc4n23)cc1` stands inactive: -0.666%; under `Cc1cnc2c(c1SCC(=O)NCc1ccc(F)cc1)c(=O)n(C)c(=O)n2C`, inactive: -10.7%; under `Cc1cccc(N2CCN(c3ncnc4c3c(-c3ccccc3)cn4-c3ccccc3)CC2C)c1` (centres undefined), inactive: -17.9%. Under `CCOc1ccc(-c2cc(C(=O)N3CCN(c4ccc(C)cc4)C(C)C3)c3ccccc3n2)cc1` (centres undefined) stands inactive: 8.91%.

As for `CC(C)(C)c1ccc(OCC(=O)NC(Cc2c[nH]c3ccccc23)C(=O)O)cc1` (centres undefined), the “activity change, negative = inhibition” value is inactive: -0.839%. Under `COc1cccc(CNC(=O)CCCn2c(=O)c3cccn3c3cccnc32)c1OC` stands inactive: 10.9%.
